In all, about 330,000 compounds went through this assay and about 4,200 (1.3%) were called active. The inconclusive results got no clear call from the source; some entries with a clear call stand among them for comparison. Calls come from the whole dose curve; as a rule, active = well fitted activation curve with a large enough effect; inconclusive = small, poorly fitted or top-dose-only effect; inactive = no such curve, though single readings can be large or run the other way. Potencies of inconclusive entries are doubtful fits and often do not repeat.
Assay: qHTS screen for small molecules that induce genotoxicity in human embryonic kidney (HEK293T) cells expressing luciferase-tagged ELG1; note: nearly all actives have a fitted effect of over 60% in size; for activity change, positive = activation: % of control where 0% means no effect
Settings: HEK293T ELG1-luciferase reporter, luminescence, 16 h; series mostly up to 46 µM; activity change, positive = activation: at the top concentration
How it was run: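 16 hr compound incubation (37 °C, 5% CO2) of HEK293T cells carrying luciferase-tagged ELG1; luciferase then measured by ONE-Glo luminescence after 30 min at RT.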
Potency is the fitted concentration of half-maximal effect; tags give direction and shape of the fitted curve.

| Compound | Potency | activity change, positive = activation |
| --- | --- | --- |
| Cc1occc1C(=O)N/N=C/c1ccc(Cl)c([N+](=O)[O-])c1 | inconclusive: 23.1 µM [activator, partial curve, poor fit] |  |
| CCN1CCN(Cc2ccc(NC(=O)Nc3ccccc3OC)cc2)CC1 | active: 18.4 µM |  |
| O=C(CSc1ccccn1)C12CC3CC(CC(C3)C1)C2 |  | inactive: -2.76% |
| CCc1cc2c(SCC(=O)c3ccccc3)ncnc2s1 | inconclusive: 14.6 µM [activator, partial curve, poor fit] |  |
| CC(=O)Cn1cnc2sc(-c3ccccc3)cc2c1=O | active: 12.6 µM |  |
| O=C(NCCc1c[nH]c2ccccc12)c1ccc2c(c1)OCO2 | inconclusive: 3.98 µM [activator, single point] |  |
| O=C(Nc1ccc2sccc2c1)c1ccc(Cl)s1 | active: 1.46 µM |  |
| Cc1ccnc(NC(=O)COc2ccc3c(c2)CCC3)c1 | active: 2.06 µM |  |
| Cc1cc(C)cc(C(=O)Nc2ccc(N3CCCC3)cc2)c1 | inconclusive: 9.2 µM [activator, partial curve] |  |
| COc1ccc(NC(=O)C#Cc2ccccc2)cc1 | inconclusive: 13 µM [activator, partial curve, poor fit] |  |
| Cc1cc(C)c2c(N)c(C(=O)Nc3ccccc3Br)sc2n1 | inconclusive: 18.3 µM [activator, single point] |  |
| c1ccc(-c2ccc(SCc3cccnc3)nn2)nc1 | inconclusive: 25.9 µM [activator, partial curve, poor fit] |  |
| CCCCN(CC)C(=O)CSc1nc2c(sc(=S)n2-c2ccc(OCC)cc2)c(=O)[nH]1 |  | inactive: -5.56% |
| O=C(O)C1CCC(c2ccc(-c3ccccc3)cc2)CC1 (centres undefined) | inconclusive: 10.3 µM [activator, partial curve, poor fit] |  |
| Cc1cc2ccccn2c1C(=O)Nc1ccc(Cl)cc1 | inconclusive: 20.6 µM [activator, partial curve, poor fit] |  |
| O=C(OCC(=O)N1CCN(C(=O)c2ccco2)CC1)c1ccccc1OCc1ccccc1 |  | inactive: -0.254% |
| Cn1c(CN2CCCC2)nc2cc(NC(=O)Nc3ccccc3)ccc21 | inconclusive: 23.1 µM [activator, partial curve, poor fit] |  |
| Cc1ccc(C)c(N2CCN(C(=O)c3ccc(CSc4nc5ccncc5[nH]4)cc3)CC2)c1 |  | inactive: -2.44% |
| Cc1cc(C)cc(NC(=O)CSc2nccn2Cc2ccco2)c1 |  | inactive: 5.01% |
| O=C(Nc1ccc(NC(=S)NC(=O)c2ccco2)cc1)c1ccccc1 |  | inactive: 14.6% |
| O=C(O)c1ccc2c(=O)n3c(nc2c1)/C(=C/c1ccc(Cl)c([N+](=O)[O-])c1)CC3 | inconclusive: 29.1 µM [activator, single point] |  |
| Clc1ccc2nc(CSc3nc4ccccc4o3)cn2c1 | active: 2.59 µM |  |
| O=S(=O)(O)c1cc(O)c2c(O)c(N=Nc3cc(Cl)ccc3O)c(S(=O)(=O)O)cc2c1 |  | inactive: -4.36% |
| CCS(=O)(=O)n1nc(-c2ccccc2)nc1SCc1ccccc1 | active: 10.3 µM |  |
| O=C(Cc1cccc2ccccc12)OCn1nnc2ccccc2c1=O | inconclusive: 29.1 µM [activator, single point] |  |

| Compound | Potency | activity change, positive = activation |
| --- | --- | --- |
| COc1ccc(OCc2cc(C(=O)N(C)Cc3cnccn3)no2)c(Cl)c1 | inconclusive: 13 µM [activator, partial curve] |  |
| Cc1[nH]c2ccccc2c1C(=O)CSc1ccc(Cl)cc1 | inconclusive: 20.6 µM [activator, partial curve, poor fit] |  |
| CCCCNc1c(-c2ccc(SC3CCCCC3)cc2)nc2ccccn12 | active: 10.3 µM |  |
| Cc1ccn2cc(-c3nonc3C)cc2c1 | active: 23.1 µM |  |
| COc1ccc(C(=O)N/N=C/c2cccnc2)cc1 | inconclusive: 20.6 µM [activator, single point] |  |
| COc1ccc(C(=O)N(CCc2ccccc2)Cc2ccccc2)c(OC)n1 |  | inactive: -5.86% |
| O=C(N/N=C/c1cn(Cc2ccccc2)c2ccccc12)c1ccncc1 |  | inactive: -5.02% |
| O=C(NC1CC1)c1cc2cc3ccccc3nc2s1 | inconclusive: 13 µM [activator, partial curve] |  |
| COc1ccc(/C=N/NC(=O)c2cc(C34CC5CC(CC(C5)C3)C4)[nH]n2)cc1O | inconclusive: 25.9 µM [activator, single point] |  |
| Cc1cccc(N=Nc2c(O)[nH]c3ccc(Br)cc23)c1 | inconclusive: 18.3 µM [activator, partial curve, poor fit] |  |
| CCOc1ccc(-c2nc(-c3ccccc3C)no2)cc1 | active: 0.731 µM |  |
| N#C/C(=C\c1ccc(OCc2ccccc2)cc1)C(=O)Nc1nc2c(s1)CCN(Cc1ccccc1)C2 | inconclusive: 6.51 µM [activator, single point] |  |
| O=C(Nc1ccccc1C(=O)O)c1ccc2ccccc2n1 | inconclusive: 18.4 µM [activator, single point] |  |
| COc1nnc(-c2ccc(C)c(S(=O)(=O)NC(C)C)c2)c2ccccc12 |  | inactive: -4% |
| O=[N+]([O-])c1ccc(Cl)c(S(=O)(=O)Nc2cccc(-c3ccc(N4CCOCC4)nn3)c2)c1 | active: 10.3 µM |  |
| O=C(N/C(=C/c1ccc([N+](=O)[O-])cc1)C(=O)N1CCOCC1)c1ccco1 |  | inactive: 6.91% |
| CCOC(=O)c1sc(NC(=O)c2ccccc2)cc1C | active: 1.26 µM |  |
| Cc1ccc2c3c([nH]c2c1C)-c1nonc1CC3 | inconclusive: 20.6 µM [activator, single point] |  |
| COc1ccc(-c2cc(C(=O)OCC(=O)N3CCOCC3)c3ccccc3n2)cc1 |  | inactive: 1.38% |
| O=C(COC(=O)c1ccccc1Nc1ccc(SC(F)F)cc1)NC1CC1 | inconclusive: 25.9 µM [activator, single point] |  |
| Cc1cccc(C)c1N=Nc1c(C)cc(O)cc1C | inconclusive: 23.1 µM [activator, partial curve, poor fit] |  |
| COc1ccccc1N1CCN(C2=Nc3cccc4cccc2c34)CC1 |  | inactive: 5.13% |
| Cc1nn(Cc2ccc(C(=O)Nc3ccc(C(=O)OC(C)C)cc3)o2)c(C)c1Cl |  | inactive: 2.2% |
| O=C(CSc1ccccn1)c1ccc(F)cc1 | inconclusive: 16.4 µM [activator, partial curve] |  |

Reference: PubChem BioAssay AID504466 (National Center for Advancing Translational Sciences (NCATS), 2011)
